Columns and labels:
[1] = Half-life determination in NMRI mice; format: in vivo
Procedure: Molecules A-D are each made up of two polypeptides covalently linked by interchain disulfide bonds. The number of glycosites and hinge cysteines (resulting in interchain disulfide bonds between proteins) were tested in order to determine the effect that altering these characteristics has on the half-life of these compounds.
Female NMRI mice were treated with 1.2 mg/kg bw and/or with 4 mg/kg bw of the specified compounds as a single intravenous bolus injection. Whole blood was collected before application (predose), and up to 168 hours after test item administration. Serum was prepared and samples were stored at −80° C. until determination of serum concentrations. Pharmacokinetic parameters were calculated using the mean serum concentrations and the pharmacokinetic evaluation program PK Solutions Version 2.0 for non-compartmental pharmacokinetic data analysis (Summit Research Services, Montrose, Colo.). PK Solutions is an automated, Excel-based application, which computes pharmacokinetic parameters from concentration-time data obtained from analysis of e.g. biological samples following intravenous or extra-vascular routes of administration. PK Solutions calculates results without presuming any specific compartmental model.
Quantitation of the test items in serum was performed with an ELISA-assay detecting the individual TRAIL-receptor agonists shown in Table 7 independent of a Strep-Tag being part of the molecules.

[2] = tested on: subcutaneous H460LM (non-small cell lung) xenograft tumors; experiment: H460LM non-small cell lung xenograft model; format: in vivo; settings: SCID female mice, 0.3, 1, or 3 mkd dosed IV, QDx5 or IP, Q2Dx5 as indicated
Procedure: (§1) The effect of a TRAIL receptor agonist protein made up of two polypeptides having the amino acid sequence set forth in SEQ ID NO:19 on tumor growth was evaluated in subcutaneous Colo205 (colorectal), SKM-1 (acute myeloid leukemia), and H460LM (non-small cell lung) xenograft tumors implanted in SCID female mice (Charles Rivers Laboratories; Wilmington, Mass.). Briefly, human cancer cells were inoculated subcutaneously into the right hind flank of female SCID mice on study day 0. Administration of TRAIL receptor agonist protein of SEQ ID NO:19 (0.3, 1, or 3 mkd dosed IV, QDx5 or IP, Q2Dx5 as indicated) was initiated at the time of size match. Tumor volume was measured for the duration of the experiment until the mean tumor volume in each group reached an endpoint of >2000 mm^3 for Colo205 and SKM-1 or >2500 mm^3 for H460LM.

[3] = tested on: subcutaneous Colo205 (colorectal) xenograft tumors; experiment: Colo205 colorectal carcinoma xenograft model; format: in vivo; settings: SCID female mice, 0.3, 1, or 3 mkd dosed IV, QDx5 or IP, Q2Dx5 as indicated
Procedure: as §1

SW480 = experiment: Tumor cell viability, CellTiter-Glo; format: cell-based, human; settings: SW480 (CRC), 24 hours
Procedure: (§2) Tumor cells were seeded at 10,000 cells/well in 96-well plates in the recommended media containing 10% FBS and treated with a TRAIL receptor agonist protein made up of two polypeptides having the amino acid sequence set forth in SEQ ID NO: 19 for 24 hours at 37° C. in a humidified, 5% CO2 atmosphere. Cell viability was subsequently assessed using CellTiter-Glo® reagent as described by the manufacturer's instructions (Promega; Madison, Wis.). IC50 values were determined by non-linear regression analysis of the concentration response data normalized to non-treated control cells.

NCI-H596 = experiment: Tumor cell viability, CellTiter-Glo; format: cell-based, human; settings: NCI-H596 (NSCLC), 24 hours
Procedure: as §2

PL-21 = experiment: Tumor cell viability, CellTiter-Glo; format: cell-based, human; settings: PL-21 (AML), 24 hours
Procedure: as §2

NCI-H460 = experiment: Tumor cell viability, CellTiter-Glo; format: cell-based, human; settings: NCI-H460 (NSCLC), 24 hours
Procedure: as §2

TF-1 = experiment: Tumor cell viability, CellTiter-Glo; format: cell-based, human; settings: TF-1 (AML), 24 hours
Procedure: as §2

OCI-AML5 = experiment: Tumor cell viability, CellTiter-Glo; format: cell-based, human; settings: OCI-AML5 (AML), 24 hours
Procedure: as §2

SHI-1 = experiment: Tumor cell viability, CellTiter-Glo; format: cell-based, human; settings: SHI-1 (AML), 24 hours
Procedure: as §2

NCI-H727 = experiment: Tumor cell viability, CellTiter-Glo; format: cell-based, human; settings: NCI-H727 (NSCLC), 24 hours
Procedure: as §2

PANC-1 = experiment: Tumor cell viability, CellTiter-Glo; format: cell-based, human; settings: PANC-1 (Pancreatic), 24 hours
Procedure: as §2

OCI-Ly8 = experiment: Tumor cell viability, CellTiter-Glo; format: cell-based, human; settings: OCI-Ly8 (NHL), 24 hours
Procedure: as §2

Calu-6 = experiment: Tumor cell viability, CellTiter-Glo; format: cell-based, human; settings: Calu-6 (NSCLC), 24 hours
Procedure: as §2

SU-DHL-5 = experiment: Tumor cell viability, CellTiter-Glo; format: cell-based, human; settings: SU-DHL-5 (NHL), 24 hours
Procedure: as §2

OCI-Ly18 = experiment: Tumor cell viability, CellTiter-Glo; format: cell-based, human; settings: OCI-Ly18 (NHL), 24 hours
Procedure: as §2

HCC38 = experiment: Tumor cell viability, CellTiter-Glo; format: cell-based, human; settings: HCC38 (BrCa), 24 hours
Procedure: as §2

Jurkat = experiment: Tumor cell viability, CellTiter-Glo; format: cell-based, human; settings: 24 hours
Procedure: as §2

Fadu-GFP = experiment: Tumor cell viability, CellTiter-Glo; format: cell-based, human; settings: Fadu-GFP (H&N), 24 hours
Procedure: as §2

U2932 = experiment: Tumor cell viability, CellTiter-Glo; format: cell-based, human; settings: U2932 (NHL), 24 hours
Procedure: as §2

NCI-H1944 = experiment: Tumor cell viability, CellTiter-Glo; format: cell-based, human; settings: NCI-H1944 (NSCLC), 24 hours
Procedure: as §2

OCI-LY3 = experiment: Tumor cell viability, CellTiter-Glo; format: cell-based, human; settings: OCI-LY3 (NHL), 24 hours
Procedure: as §2

NCI-H647 = experiment: Tumor cell viability, CellTiter-Glo; format: cell-based, human; settings: NCI-H647 (NSCLC), 24 hours
Procedure: as §2

NCI-H1975 = experiment: Tumor cell viability, CellTiter-Glo; format: cell-based, human; settings: NCI-H1975 (NSCLC), 24 hours
Procedure: as §2

NCI-H211 = experiment: Tumor cell viability, CellTiter-Glo; format: cell-based, human; settings: NCI-H211 (SCLC), 24 hours
Procedure: as §2

HT = experiment: Tumor cell viability, CellTiter-Glo; format: cell-based, human; settings: HT (NHL), 24 hours
Procedure: as §2

B1: SEQ ID NO: 19: made up of two polypeptides of SEQ ID NO: 19; three hinge cysteines, N297S aglycosylated CH2, glycosites at positions 168 and 337 (protein)
chain: QRVAAHITGTRGRSNTLSSPNSKNEKALGRKINSWESSRSGHSFLSNLHLRNGELVIHEKGFYYIYSQTYFRFQEEIKENTKNDKQMVQYIYKYTSYPDPILLMKSARNSCWSKDAEYGLYSIYQGGIFELKENDRIFVSVTNEHLIDMDHEASFFGAFLVGGSGSGNGSRVAAHITGTRGRSNTLSSPNSKNEKALGRKINSWESSRSGHSFLSNLHLRNGELVIHEKGFYYIYSQTYFRFQEEIKENTKNDKQMVQYIYKYTSYPDPILLMKSARNSCWSKDAEYGLYSIYQGGIFELKENDRIFVSVTNEHLIDMDHEASFFGAFLVGGSGSGNGSRVAAHITGTRGRSNTLSSPNSKNEKALGRKINSWESSRSGHSFLSNLHLRNGELVIHEKGFYYIYSQTYFRFQEEIKENTKNDKQMVQYIYKYTSYPDPILLMKSARNSCWSKDAEYGLYSIYQGGIFELKENDRIFVSVTNEHLIDMDHEASFFGAFLVGGPGSSSSSSSG[human IgG1 Fc with N297S (EU numbers) not written out]
modifications: homodimer
In the case of B1, the “in vivo stability (as judged by compound half-life)” value ([1]; NMRI mice, comparison between Molecules A-D) is reported as “enhanced when compared to Molecule A”, the “Terminal Half-life 1.2 mg/kg i.v.” value ([1]; female NMRI mice, 1.2 mg/kg single intravenous bolus, serum, ELISA) is reported as 28.28 h and the “Terminal Half-life 4 mg/kg i.v.” value ([1]; female NMRI mice, 4 mg/kg single intravenous bolus, serum, ELISA) is reported as 33.94 h. The “effect on tumor growth” value [2] was “significant tumor growth inhibition”, the “effect on tumor growth” value [3] was “significant tumor growth inhibition” and the IC50 (SW480) was 0.132 mg/L. The IC50 (NCI-H596) was 0.3978 mg/L, the IC50 (PL-21) was 0.01067 mg/L and the IC50 (NCI-H460) was 0.03685 mg/L. For the same molecule, the IC50 (TF-1) was 1 mg/L, the IC50 (OCI-AML5) was 1.0326 mg/L and the IC50 (SHI-1) was 1 mg/L. It also gave an IC50 (NCI-H727) of 3.178 mg/L, an IC50 (PANC-1) of over 1 mg/L and an IC50 (OCI-Ly8) of 0.00749 mg/L. For the same molecule, the IC50 (Calu-6) was 4.757 mg/L, the IC50 (SU-DHL-5) was 0.08207 mg/L and the IC50 (OCI-Ly18) was 0.1962 mg/L. For the same molecule, the IC50 (HCC38) was 0.003 mg/L, the IC50 (Jurkat; Jurkat (ALL)) was 0.00308 mg/L and the “cell death / cell viability (FIG. 19)” value (Jurkat; Jurkat cells, increasing concentrations) was “induces cell death”. It also gave an IC50 (Fadu-GFP) of over 0.003 mg/L, an IC50 (U2932) of 1 mg/L and an IC50 (NCI-H1944) of 4.06875 mg/L. It also gave an IC50 (OCI-LY3) of 1 mg/L, an IC50 (NCI-H647) of 0.02475 mg/L and an IC50 (NCI-H1975) of 0.7415 mg/L. The IC50 (NCI-H211) was 0.07258 mg/L and the IC50 (HT) was 1 mg/L.
